# Hit rate of the full screen: of about 110,000 compounds, about 230 (0.21%) showed an effect of 50% or more. The list shows a part of the results.
# Biological target: DPAP1 (Plasmodium falciparum, UniProt Q8IIJ9)
# Experiment: primary screen, percent inhibition; read by cleavage of a fluorogenic dipeptide substrate; higher = more effect of the substance
# Set-up: species or system P. falciparum D10 trophozoite lysates; single well
# 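Note: 30 min substrate incubation versus DMSO and 10 µM JCP410 controls.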
# Chain of DPAP1 (Q8IIJ9 whole entry, looked up): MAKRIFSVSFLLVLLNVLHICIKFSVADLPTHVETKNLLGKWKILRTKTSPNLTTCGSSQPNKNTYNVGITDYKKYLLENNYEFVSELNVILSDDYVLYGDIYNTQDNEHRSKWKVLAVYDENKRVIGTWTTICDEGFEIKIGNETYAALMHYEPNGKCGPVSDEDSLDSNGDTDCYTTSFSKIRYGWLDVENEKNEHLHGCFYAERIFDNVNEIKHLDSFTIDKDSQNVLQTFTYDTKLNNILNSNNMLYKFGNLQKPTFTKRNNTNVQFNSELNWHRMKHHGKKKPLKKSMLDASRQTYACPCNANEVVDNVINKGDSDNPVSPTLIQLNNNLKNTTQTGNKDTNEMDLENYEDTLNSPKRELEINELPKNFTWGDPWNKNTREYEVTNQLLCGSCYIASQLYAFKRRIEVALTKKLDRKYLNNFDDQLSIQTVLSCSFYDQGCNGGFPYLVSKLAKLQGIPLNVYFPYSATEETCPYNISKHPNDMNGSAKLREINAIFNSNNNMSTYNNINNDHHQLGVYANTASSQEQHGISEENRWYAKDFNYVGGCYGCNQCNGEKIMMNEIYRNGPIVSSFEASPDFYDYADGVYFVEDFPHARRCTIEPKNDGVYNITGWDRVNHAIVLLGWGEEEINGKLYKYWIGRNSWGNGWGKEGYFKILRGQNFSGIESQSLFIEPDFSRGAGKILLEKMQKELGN
row,Compound,% Inhibition @ 10 uM [%]
1,CCOCCCNC(=O)Nc1nnc(N2CCCC(C)C2)s1 (centres unmarked),0.623
2,CCc1nn(-c2cc(Cl)nc(-c3ccccc3)n2)c(N)c1C#N,-3.16
3,O=[N+]([O-])c1ccccc1S(=O)(=O)N1CCN(Cc2ccccc2)CC1,0.986
4,CCc1nn(CC(=O)NCCc2ccc(C)cc2)c(=O)c2cc3sccc3n12,-3.35
5,COc1ccc(Oc2nc3ccccc3n3cnnc23)cc1,-6.22
6,CCOC(=O)c1cncc(Br)c1,2.62
7,CS(=O)(=O)N(CC(=O)Nc1ccc(Br)cc1F)C1CCCCC1,1.84
8,CCOc1ccccc1CNCc1c(C(=O)O)n(Cc2ccccc2F)c2cc(C)ccc12,3.97
9,COc1ccccc1/C=C(\NC(=O)c1ccccc1)C(=O)Nc1ccc(Cl)cc1,4.01
10,CC(NC(=O)C1CCCN(S(C)(=O)=O)C1)c1ccccc1 (centres unmarked),0.514
11,CN1C(C(=O)NCCN2CCOCC2)=CC(c2ccco2)=NS1(=O)=O,3.92
12,O=C(Nc1ccccc1C(F)(F)F)c1cccnc1Cl,1.28
13,COc1ccc(/C=C2\N=C(c3ccc(Cl)c(Cl)c3)OC2=O)cc1OC,-1.89
14,CC(=O)Nc1ccc(NC(=O)/C=C/c2ccccc2)cc1,-1.92
15,Cc1ccc(-c2csc(Nc3ccccn3)n2)cc1,2.62
16,CCOc1ccc(C2c3c(-c4cc(C)ccc4O)n[nH]c3C(=O)N2Cc2ccco2)cc1 (centres unmarked),5.35
17,Cc1cccn2c(=O)c3cc(C(=O)NC4CCCC4)c(=N)n(CC4CCCO4)c3nc12 (centres unmarked),1.97
18,COc1ccc(OCC(=O)Nc2ccc(C#N)cc2)cc1,2.01
19,COc1ccccc1C(=O)N/C(=C\c1ccc2c(c1)OCO2)C(=O)NCCO,2.3
20,O=C(Nc1ccc(S(=O)(=O)Nc2nccs2)cc1)C1CCCO1 (centres unmarked),-3.49
21,O=C(O)c1ccc(CNCc2ccccc2F)cc1,-1.05
22,CC1(C)CC(=O)C2=C(C1)N(Cc1ccccc1)C(=O)C2(NC(=O)c1cccs1)C(F)(F)F (centres unmarked),3.93
23,O=C(Cn1c(-c2ccccn2)nc2ccccc21)NCCCn1ccnc1,-3.33
24,CN(Cc1cccc(Cl)c1)C1CCN(C(=O)NCc2ccccc2)CC1,0.0882
25,Cc1cccc(-c2cc(C(=O)NCc3cnn(C)c3)c3ccccc3n2)c1,5.54

row,Compound,% Inhibition @ 10 uM [%]
1,COc1ccc(CCNC(=O)c2ccc(CS(=O)(=O)c3ccccc3)o2)cc1OC,-1.28
2,CC[C@@H](C)[C@@H](CS(=O)(=O)N[C@@H](CCc1ccccc1)C(=O)C[N+](=O)[O-])NC(=O)OCc1ccccc1,-7.36
3,Cc1cc(C(=O)Nc2ccccc2C(=O)O)ccc1N,-15.1
4,COc1cc2c(C(=O)NCc3ccc(F)cc3)cn(CC(C)C)c(=O)c2cc1OC,-2.49
5,COc1ccc(C2CC(C(F)(F)F)n3nc(C(=O)NCc4cn(C)nc4C)c(Cl)c3N2)cc1 (centres unmarked),4.3
6,Cn1nc(Oc2nc(Cl)nc(NC(C)(C)C)n2)ccc1=O,-6.7
7,Cc1cc(NC(=O)CCCOc2ccc(Cl)cc2C)no1,2.36
8,Cc1cccc(Cn2c(C)c(C)c3cc(C(=O)N4CCOCC4)ccc32)c1,-1.04
9,CCOc1cc2c(cc1OCC)C(c1ccc(O)c(Cl)c1)NCC2 (centres unmarked),1.92
10,COc1ccc(-c2c(C#N)c(N)n3c(nc4ccccc43)c2C#N)cc1OC,26.6
11,O=C(CCn1ccc2cc(S(=O)(=O)N3CCCC3)ccc21)NCCc1ccccc1,7.2
12,Cc1cc2ncn(CCCOc3ccccc3)c2cc1C,1.12
13,OCC1CCCN(Cc2ccccc2)C1 (centres unmarked),-1.5
14,CCc1nn(CCCC(=O)N2CCCCCC2)c(=O)c2cc3occc3n12,1.38
15,O=C1/C(=C/c2ccco2)N=C(N2CCCCC2)N1c1cccc(Cl)c1,-12.7
16,COc1ccc(N2C(=O)C3CC=CC(C)C3C2=O)cc1 (centres unmarked),-4.67
17,Cc1ccc2oc(-c3ccccc3)c/c(=N\CCCCCC(=O)O)c2c1,2.24
18,CCOc1ccccc1CNCc1c(C(=O)O)n(C)c2cc(OC)ccc12,4.41
19,Cc1ccc(CN2CCN(c3ncccn3)CC2)cc1,4.47
20,Sc1nc(-c2ccccc2)nc2c1Cc1ccccc1O2,4.16
21,CN(C)C(=O)CCC(=O)c1c[nH]c2ccccc12,-7.96
22,Cc1ccc(-c2nnc(SCC(=O)N3CC(C)CC(C)C3)o2)cc1C (centres unmarked),-2.19
23,N#CC1(c2ccccc2)CCN(S(=O)(=O)c2ccc(OC(F)(F)F)cc2)CC1,-5.08
24,CCN1C(=O)CC(C(=O)Nc2ccc(C(=O)O)cc2)S/C1=N\c1cccc(Cl)c1 (centres unmarked),1.52
25,Cc1nc2ccc(S(=O)(=O)NCC(=O)N3CCC(Cc4ccccc4)CC3)cc2s1,4.14
